Laboratory results as given in the supplement of paper PMC3334620.
In all, about 33,000 sequences were measured (“E-score (-0.5 to 0.5)”: median about -0.016, highest 2% from about 0.31 on). The list shows a part of the results.

Target: Cst6 (UniProt P40535)
Test: PBM E-score (8-mer binding enrichment) (E-score (-0.5 to 0.5)); higher = stronger / more preferred TF binding; most listed sequences are background and not binding sites
Conditions: protein concentration: 200 nM; construct: GST-DNA-binding domain
Procedure, shortened: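 Masliner-normalised scans of fluorescent anti-GST signal were the basis for scoring. That signal came from GST-tagged yeast transcription factors applied at about 100-200 nM to double-stranded universal all-10-mer Agilent arrays on fresh or once-stripped slides. Each ungapped eight-base word, pooled with its reverse complement, received an E-score from the Universal PBM Analysis Suite.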

Sequence | PBM E-score
GCTATAAA | 0.117
GACGAAAA | 0.329
AGTTAGTA | -0.00586
ACTGCTAC | 0.0057
AGCCGGCT | -0.193
AGGATCTG | -0.276
CTTAGCCC | -0.21
AGCATCGG | -0.139
GGTTTCCA | -0.233
CGTTAGCA | 0.123
ACACGGAA | 0.164
CAGAGCCA | -0.21
ATCCTTAC | 0.0997
ATAGATGA | 0.159
CGGGCAAA | -0.161
AGGCTTTA | 0.0698
ACCCGTGG | -0.252
ATCGATAA | 0.0397
CAATATGG | -0.0819
AACCTACG | -0.043
GTTTTGGA | -0.114
CTCGACAA | -0.0188
GCATCGTA | 0.0338
AGTTCGGG | -0.0616
GCAGTCTA | -0.229

Sequence | PBM E-score
ATCTGCAG | 0.0722
GCAGCTAA | -0.0537
GAAATTAC | 0.275
CGCAGTAA | 0.187
GCGAACGC | -0.0992
CAGCTTGC | -0.0683
CACTGTTC | -0.0822
TAAGTTCA | 0.0249
CTAGCAGC | -0.143
ATGTTACA | 0.123
CCAGATTA | 0.0663
ACTAGTTC | 0.0244
ACCCCTTG | -0.33
ATATACAG | 0.133
AAAAGTAC | 0.129
GGTTAGTA | 0.0636
ACGGGCGG | -0.236
TCAGCAAA | 0.197
ATTTCCTA | 0.11
AAGTTTCT | 0.205
ATCCGTCA | 0.253
TCGACTCA | 0.00059
CAAGCCGG | -0.0131
ACGCCTAT | -0.07
AAGCTTTC | 0.0818

Sequence | PBM E-score
CGCGACCG | 0.0126
GAGAGCGC | -0.065
GAGAGCCC | -0.336
ACAGTCTG | -0.239
GAGCCAGA | -0.0426
TCGCCCGA | -0.262
CGGATAGC | -0.022
CCGTCAAA | 0.0647
GATTTGAA | 0.104
TACTCAGA | 0.137
ATTAGAGC | 0.163
ACATCGAT | 0.132
ACTAAGGA | -0.207
CTGACTGC | -0.12
GTGGAGGA | -0.0297
GACACGCC | 0.0155
AGCTGGTA | -0.242
CTCAGTCA | 0.1
GGAAATTA | 0.25
GTACCTCA | -0.0484
CTAGGCAC | -0.0993
AAAGGAAG | -0.126
GCCTGATA | -0.0644
CTCGCGAA | -0.12
ACATACCG | -0.0815

Sequence | PBM E-score
AGCATCAT | 0.251
TACGATAA | 0.203
CAAATTTC | -0.0576
AACTCGCT | -0.112
AGCTCGCA | -0.057
GACCACTC | -0.168
CTCTTAGA | -0.0632
TCGTCACA | 0.368
AGAAAAAC | 0.00206
CCGGTCCC | -0.36
ATTACGAG | 0.235
AATTAGCC | 0.0058
AGATTATG | 0.068
AGCGTGGG | -0.292
ACATCATA | 0.443
CCATCCCC | -0.15
CACATGCG | 0.106
CGGGATCC | -0.104
CCGTGAAA | 0.1
CTTTACTA | 0.159
AACTTGCA | 0.0569
GCCCCTGA | -0.249
ACGGTTTG | -0.0412
GTGAGCCA | 0.0286
ATAAATAA | 0.335

Sequence | PBM E-score
CAATGGAA | 0.0744
CCTCTTCA | -0.139
ATAAGTAA | 0.164
AATCACCA | 0.169
ACAGGCCC | -0.333
AACTAAAT | 0.00726
CCACTTTC | 0.0466
TCGGCCAA | -0.0317
CGAATGGC | -0.0119
CAGGGACG | -0.0973
CAGCCCAA | -0.0169
GGCCACGA | -0.116
CCCACTGC | -0.177
TAGCTCCA | -0.0325
CGAACCGA | 0.122
AGTGGCGG | -0.0712
TCGTGCCA | -0.0834
GTAACGAC | 0.0256
TACCAAAA | 0.059
CATTCTTC | 0.0436
CACTAGCA | -0.149
AGATACGA | 0.116
ATGGGCTG | -0.207
ATTACTTA | 0.237
CTTATTTC | 0.266

Sequence | PBM E-score
CGTTACCA | 0.168
CCGTACCA | 0.00128
AACCCGCG | 0.053
CGGTGACA | 0.266
AACATGTG | 0.22
CATAGCAC | 0.138
CCCCGACG | -0.241
CTAAACAG | 0.0727
CTAGACGC | -0.132
CTAAAGAG | -0.0139
AAAAGTGC | 0.0658
GAATCATA | 0.151
CATCACTA | 0.353
GTCATAAC | 0.29
CCACCGGG | -0.295
CATTTAAA | 0.279
CCGGTTTA | -0.0985
AGGCCAGA | -0.185
CACTACGA | 0.129
GAAGCTGA | 0.0703
GGATTAGA | -0.142
AGATAACG | 0.203
GATTTACA | 0.191
AGTTTTTG | 0.147
GCACCGAC | 0.00751

Sequence | PBM E-score
CACTGTAC | -0.267
CATAATGC | 0.0974
ACGTTGCT | 0.0989
GGCAGGAC | -0.324
GCCTCCCA | -0.211
GAACGACA | 0.0632
GAAATGCA | -0.0223
GCGCTGCC | -0.144
CAATCGAG | -0.191
ACCATGTC | 0.145
CGGTTTTA | -0.063
CATTCCCC | -0.155
GCGTGACA | 0.255
CTGCTATA | 0.0154
CCTAAGCA | -0.0807
GGAAGTAA | -0.0428
CGCTGGAA | -0.0873
GGTAATTA | 0.215
GACATGAC | 0.275
CCGAATTC | 0.0525
AAGCTCTA | -0.157
ATCACGGG | 0.112
CGACGGCA | -0.00873
ATAGATAC | 0.137
GTACACGA | 0.192

Sequence | PBM E-score
CCGTATGA | 0.226
TTACTGAA | 0.128
AGCAGTCC | -0.35
CGCGCTGA | -0.0301
GACATTCA | 0.0891
CTAAGACA | 0.0903
GACAAATC | 0.0252
GAAAAAAA | 0.258
CCGGTTTC | -0.131
AGGCCCTG | -0.25
TCTGCTCA | -0.0542
CAAAAGGG | -0.0943
GAAAAGAC | 0.222
CGCCTTAC | 0.163
AGTAGTAC | 0.101
CAATAAGC | -0.0306
ATATGAGC | -0.0814
GGCATACC | -0.21
AAGGTTAT | -0.0505
AACCGAGT | -0.219
CAAAGCTG | -0.06
CCTGCGTA | 0.0652
AACTGTTA | 0.144
GGCAAAGA | 0.0808
ACACGTCG | -0.0793

Sequence | PBM E-score
GAGTGGCC | -0.161
AATGGTTC | 0.0881
AGTGCGTG | -0.00229
GACCGAAC | -0.0143
ATGAGACA | 0.00932
GCATCGCC | -0.101
ATGACTTC | 0.218
CGCAAGCC | -0.0358
ACTTTCCT | -0.00458
GACGGCAA | 0.18
GTGACTTA | 0.206
ACGCCTGA | 0.142
CATTTGGC | 0.0498
AAGGTAAG | 0.0212
TATGCGCA | -0.0237
GGCAGGGA | -0.142
ACGCGACC | -0.0529
CAATCGCG | -0.0451
CGTCGAGC | -0.104
